# Among all 310,000 compounds or so, about 14,000 (4.5%) showed an effect of 50% or more. Effects have a minus sign here. The list shows a part of the results.
# Biological target: human ether-à-go-go-related gene (hERG) potassium channel (human, UniProt Q12809)
# Experiment: primary screen, population patch clamp on CHO cells stably expressing hERG
# 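Further: peak tail current of the secondary pulse compared with the same well before compound.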
# human ether-à-go-go-related gene (hERG) potassium channel, sequence (Q12809 whole entry, looked up): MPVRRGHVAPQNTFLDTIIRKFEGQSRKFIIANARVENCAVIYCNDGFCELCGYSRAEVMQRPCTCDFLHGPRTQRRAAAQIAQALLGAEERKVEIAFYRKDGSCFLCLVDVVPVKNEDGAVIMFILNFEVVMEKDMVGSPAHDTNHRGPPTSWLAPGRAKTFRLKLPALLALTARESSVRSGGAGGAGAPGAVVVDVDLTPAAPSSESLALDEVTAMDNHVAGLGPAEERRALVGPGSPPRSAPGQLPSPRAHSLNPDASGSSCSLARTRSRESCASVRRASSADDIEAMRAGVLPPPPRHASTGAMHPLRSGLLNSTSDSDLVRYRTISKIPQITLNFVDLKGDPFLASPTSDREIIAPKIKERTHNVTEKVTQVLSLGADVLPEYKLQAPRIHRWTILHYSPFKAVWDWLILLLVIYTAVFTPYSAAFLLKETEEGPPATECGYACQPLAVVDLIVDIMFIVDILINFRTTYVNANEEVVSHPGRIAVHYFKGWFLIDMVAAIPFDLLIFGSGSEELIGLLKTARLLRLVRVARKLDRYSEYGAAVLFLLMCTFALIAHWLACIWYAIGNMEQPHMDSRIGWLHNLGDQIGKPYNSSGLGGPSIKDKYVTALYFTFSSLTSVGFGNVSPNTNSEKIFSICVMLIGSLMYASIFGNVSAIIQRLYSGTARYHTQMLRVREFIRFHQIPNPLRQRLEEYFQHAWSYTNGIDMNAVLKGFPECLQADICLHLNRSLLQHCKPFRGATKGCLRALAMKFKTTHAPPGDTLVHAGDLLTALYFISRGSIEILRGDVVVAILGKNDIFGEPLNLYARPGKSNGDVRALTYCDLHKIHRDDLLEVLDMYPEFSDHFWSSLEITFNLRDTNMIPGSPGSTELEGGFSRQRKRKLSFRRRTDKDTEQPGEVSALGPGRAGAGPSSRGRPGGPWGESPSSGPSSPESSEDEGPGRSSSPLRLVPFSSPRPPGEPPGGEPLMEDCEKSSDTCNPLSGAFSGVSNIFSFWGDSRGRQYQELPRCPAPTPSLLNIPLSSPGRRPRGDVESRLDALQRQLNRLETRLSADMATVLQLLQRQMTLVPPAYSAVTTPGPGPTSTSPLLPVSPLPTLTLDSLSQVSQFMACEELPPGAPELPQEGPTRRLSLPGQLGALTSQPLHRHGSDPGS
row,SMILES,"hERG current change (%, negative = inhibition) at 10uM [%]"
1,O=C(C1=C[C@@H](c2csc3ccccc23)C[C@@H](OCc2ccc(CO)cc2)O1)N1CCOCC1,-27.5
2,COCCNC(=O)c1cc2sc3ccccc3c2s1,-8.28
3,O=C(O)CCc1ccc(-c2cccs2)n1NC(=O)c1ccccc1Br,-7.06
4,COc1ccc(-c2cc(C(=O)NCCCN3CCCC3=O)c3ccccc3n2)cc1,-12
5,Cc1n[nH]c(=O)n1-c1cccc(C(F)(F)F)c1,17.9
6,Cc1cc(O)cc(=O)n1Cc1ccccc1,12
7,Cc1ncc(CN2CCN(C3CCCC3)C(CCO)C2)s1 (centres unmarked),27.6
8,COc1ccc(S(=O)(=O)NCCC(=O)N2CCCN(C)CC2)cc1,-5.77
9,COc1ccc(OC)c(S(=O)(=O)Nc2c(C)nn(C)c2C)c1,6.26
10,Cn1c(CNC(=O)CNC(=O)c2cccc(F)c2)cc(=O)n(C)c1=O,18
11,CCN(CC)CCCN(C(=O)c1cccs1)c1nc(-c2ccc(OC)cc2)cs1,-83.3
12,COc1ccc(-c2csc(N(CC3CCCO3)C(=O)c3ccco3)n2)cc1 (centres unmarked),-4.25
13,COc1ccc(CN2C(=O)c3ccccc3C2=O)cc1C(=O)Nc1ccccc1N1CCOCC1,-10.7
14,COc1ccc(C2C(C(C)=O)=C(O)C(=O)N2c2nccs2)c(OC)c1 (centres unmarked),18.7
15,Cc1[nH]c(=O)[nH]c(=O)c1S(=O)(=O)N1CCCC(C(=O)N2CCN(c3ccccc3Cl)CC2)C1 (centres unmarked),3.25
16,Cc1cc(-c2ccccc2)oc(=O)c1NC(=O)c1ccccc1,3.11
17,CCSc1nnc(NC(=O)C2CCN(S(=O)(=O)c3cc(C(F)(F)F)ccc3Cl)CC2)s1,-4.37
18,COCCNC(=O)Cn1cc(C(=O)c2cccs2)c2ccccc21,10.9
19,CC(C)(C)c1cc(NC(=O)c2cc(F)c(F)c(F)c2F)no1,3.93
20,Cn1c(NC(=O)c2ccc(Cl)cc2)cc(=O)n(C)c1=O,15.7
21,CCC1(c2ccccc2)NC(=O)N(CC(=O)Nc2cc(C(F)(F)F)ccc2N2CCCC2)C1=O (centres unmarked),4.77
22,Cc1cc(=O)oc(C)c1C(=O)Nc1ccc(Cl)cn1,12.7
23,COc1cc(C(=O)OCC(=O)c2ccc(S(=O)(=O)N3CCCCC3)cc2)cc(OC)c1OC,1.54

row,SMILES,"hERG current change (%, negative = inhibition) at 10uM [%]"
1,O=C(NCc1cccs1)Nc1cc(Cl)ccc1Cl,11.9
2,CCOC(=O)C1C(=O)CC(C)(O)C(C(=O)OCC)C1c1cccc(OC)c1 (centres unmarked),-1.07
3,Cc1onc(-c2ccccc2)c1-c1ccnn1S(=O)(=O)c1ccc(Cl)cc1,9.3
4,COc1cccc(-c2c(C(=O)N/N=C(\C)c3cccs3)nnn2-c2nonc2N)c1,-5.54
5,CC1=CC(C)(C)N=C(Nc2nc(C)c3cc(C)cc(C)c3n2)N1,-63.5
6,COC(=O)c1cc(S(=O)(=O)Nc2nn(C)c3cccc(F)c23)oc1C,23.3
7,CCOC(=O)N1CCN(C(=O)CSc2ccc3nnc(-c4ccncc4)n3n2)CC1,-11
8,COC(=O)/C=C1\SC(=Nc2ccc(Cl)c(Cl)c2)NC1=O,19.5
9,COc1ccc(-c2cn3ccccc3n2)cc1[N+](=O)[O-],6.33
10,CC(C)c1ccc(NCCC(=O)c2ccc(Br)cc2)cc1,12.1
11,COc1ccc(C(=O)COC(=O)c2cc(C)no2)c(OC)c1,12
12,COc1ccc(NC(=O)CCCNC(=O)Cn2cnc3sc4c(c3c2=O)CCCC4)c(OC)c1,10.3
13,CCOC(=O)N1CCN(c2c(NCCCN(CC)c3cccc(C)c3)c(=O)c2=O)CC1,-32.1
14,Cc1ccccc1/[N+]([O-])=C/c1ccncc1,15.4
15,Clc1ccc(-c2noc3c2-c2nc(Cc4cccc5ccccc45)sc2CC3)cc1,-1.72
16,CCC(=O)NCCc1nc2ccccc2n1Cc1ccccc1,-5.53
17,CCOc1ccc(S(=O)(=O)N2CCCCC2)cc1NC(=O)C1COc2ccccc2O1 (centres unmarked),15.3
18,CC(C)N(C(=O)COC(=O)c1ccccc1C(=O)N1CCN(c2ccc(F)cc2)CC1)C(C)C,-55.9
19,Cc1cc(C(=O)NNC(=O)c2ccc(Cl)cc2)c2ccccc2n1,0.225
20,CCCC(=O)Nc1nc2c(C)c(Cl)ccc2s1,-0.25
21,CCCCCCCCS(=O)C1CS(=O)(=O)CC1O (centres unmarked),5.75
22,COc1ccc(OC)c(C(Nc2ccccc2)P(=O)(OC(C)C)OC(C)C)c1 (centres unmarked),-14.1
23,CCOc1ccc(NC(=O)Cn2nnc(C(=O)NCc3ccc4c(c3)OCO4)c2N)cc1,11.7

row,SMILES,"hERG current change (%, negative = inhibition) at 10uM [%]"
1,Cc1nn(CC(O)c2ccccc2)c(C)c1Br (centres unmarked),1.15
2,Cc1ccc(NC(=O)C2C3C=CC4(O3)C2C(=O)N(CCCN2CCCCC2)C4C(=O)NC2CCCCC2)cc1Cl (centres unmarked),16.3
3,Cc1nn(CC(=O)NNC(=S)Nc2ccccc2)c(C)c1[N+](=O)[O-],10.8
4,COc1ccccc1C(=O)C1CCCN(C(=O)c2cccc(Cn3cccn3)c2)C1 (centres unmarked),-13
5,O=C(Cc1cccs1)NCc1ccc(F)cc1,-1.5
6,Cc1cccc(C)c1NC(=S)N(CCN(C)C)Cc1cccs1,0.189
7,CCCCN(CC)CCCNC(=O)Cn1nc(Cc2cccnc2)c2ccccc2c1=O,7.94
8,Cc1nc(Nc2ccccc2Cl)sc1C(=O)Nc1ccccc1,2.26
9,O=C(O)c1ccc(N2C(=O)CSC2c2cccc([N+](=O)[O-])c2)cc1 (centres unmarked),15.5
10,CSc1nc(C)cc(OCC(=O)n2nc(C)cc2C)n1,7.05
11,O=[N+]([O-])c1ccc(N/N=C/c2ccccc2)c(F)c1,4.79
12,COc1ccc(-n2nnc3c(=O)n(CC(=O)Nc4cc(C)on4)cnc32)cc1OC,8.91
13,O=C(COc1ccccc1Cl)N1CCN(c2ccc([N+](=O)[O-])c(N3CCCCC3)c2)CC1,-16.2
14,Cc1cc(C)c(NC(=S)N(C)C)c(C)c1,7.79
15,O=C1COc2ccc(C(=O)C[n+]3cccc(O)c3)cc2N1.[Cl-],-3.25
16,CCn1ncc(C2=NOC(C(=O)Nc3ccc4c(c3)OCO4)C2)c1C (centres unmarked),1.44
17,Cc1cc(C)nc(Nc2nc(-c3ccccc3)cs2)n1,16.4
18,Nc1ncnc2c1ncn2[C@H]1CC[C@@H](CO)O1,15.1
19,CC(C)c1cc(=O)[nH]c(N2CCN(Cc3ccc4c(c3)OCO4)CC2)n1,-0.0862
20,Cc1ccc(S(=O)(=O)NCCCOC(=O)Nc2ccncc2)cc1,-13.1
21,COc1ccc(-n2c(-c3cnccn3)n[nH]c2=S)cc1,15.7
22,C/C(N)=C(/C#N)C(=O)COC(=O)CC1CCCC1,-2.15
23,CCCC1=C([O-])C2N=CC=CC2=[N+](c2ccccn2)C1=O (centres unmarked),2.16

row,SMILES,"hERG current change (%, negative = inhibition) at 10uM [%]"
1,CCN(C(=O)Cn1nc(C)n2c(cc3cc(C)ccc32)c1=O)c1ccccc1,-41.2
2,CN(Cc1ccccc1)C(=O)c1ccc(Cl)c([N+](=O)[O-])c1,-53.5
3,Cc1ccc(S(=O)(=O)CCC(=O)OCc2ccc(S(=O)(=O)C(C)C)cc2)cc1,-28.1
4,Cc1cc(=O)n2[nH]c(-c3ccco3)nc2n1,13.9
5,O=C(Nc1nc2ccccc2[nH]1)c1ccccc1[N+](=O)[O-],19.5
6,CCc1ccc(C(=O)NC(CCSC)C(=O)OC)cc1 (centres unmarked),11.3
7,CC1(C)Cc2c(sc(/N=C/N3CCCCCC3)c2C#N)C(C)(C)N1,0.934
8,C=CCSc1nc(O)c(CC)c(=O)n1C(C)CC (centres unmarked),-11.3
9,O=C(Cc1cccc2ccccc12)Nc1ccc(OC(F)F)c(Cl)c1,4.11
10,N#CNC(=Nc1cccc(C(F)(F)F)c1)SCc1ccc(C(=O)O)cc1,2.03
11,CCOc1nc(NCCC2=CCCCC2)nc(N2CCOCC2)n1,-5.86
12,O=[N+]([O-])c1ccc(O)c(/C=N\N=C2c3ccccc3-c3ccccc32)c1,4.16
13,CCOC(=O)C[n+]1c(C)sc2ccc(OC)cc21.[Br-],15.4
14,Cc1ccc(N(C(=O)c2csnn2)C(C(=O)NC2CCCC2)c2cccnc2)cc1 (centres unmarked),-5.55
15,COc1cccc(-c2cc(C(=O)NCC3CCCO3)c3cc(Br)cc(C)c3n2)c1 (centres unmarked),18.3
16,CCC(=O)Nc1nc(C)cc(SCC(=O)OC)n1,5.53
17,CC(=O)c1ccc(N2CCN(S(=O)(=O)c3ccc4c(c3)CC(=O)N4)CC2)cc1,-1.11
18,O=C(c1ccco1)N1N=C(c2cccs2)CC1c1ccccc1O (centres unmarked),14.4
19,COc1cc(OC)cc(C(=O)n2cnnc2N)c1,-4.77
20,Cc1ccccc1NC(=O)c1sc2nc(N3CCOCC3)c3c(c2c1N)CCCC3,13

# — publication PMC4336329 (PLoS ONE, 2015)
